Results published in ChEMBL document CHEMBL4888484, “Replenishing the malaria drug discovery pipeline: Screening and hit evaluation of the MMV Hit Generation Library 1 (HGL1) against asexual blood stage Plasmodium falciparum ,using a nano luciferase reporter read-out” (2022).
The whole screen tested about 150,000 compounds, of which about 540 (0.36%) showed an effect of 50% or more. The list shows a part of the results.

The compounds below were run on Plasmodium falciparum (assay: Primary screen in NF54 nanoGlo assay, in single point, at 2uM, 72h; a lower Z score goes with more inhibition). Details: timepoint 72 hour.
Assay type: functional, Erythrocyte
For `CCCCn1nccc1NC(=O)N1CCC2(CC1)C(=O)N(C)c1ccccc12`, the “% Inhibition” value was -4% and the Z score was 0.67.
For `CC1CC1C(NS(=O)(=O)c1cnnn1C)c1ccc(Cl)cc1` (stereo unspecified), the “% Inhibition” value was -9% and the Z score was 1.03.
`CC(C)CNC(=O)[C@@H]1COC2(CCN(C(=O)c3ccc(Cl)c(Cl)c3)CC2)N1C(=O)c1ccco1` was tested, and the “% Inhibition” value was 2% and the Z score was -0.27.
`Cc1ccc(CCC(=O)NC[C@H]2CCC[C@@H]2O)s1` was tested, and the “% Inhibition” value was -2% and the Z score was 0.28.
For `COc1cc(Br)cc(NC(=O)N2CC[S+]([O-])CCC2C)c1` (stereo unspecified), the “% Inhibition” value was -11% and the Z score was 1.68.
With `CCN(CCCCO)C(=O)NCc1ccc(C)c(C)c1` the “% Inhibition” value was -9% and the Z score was 1.76.
In the case of `Cc1cc(O)c(C(C)C)cc1NC(=O)CCCc1nccs1`, the “% Inhibition” value is reported as -8% and the Z score is reported as 1.35.
For `CN1C[C@]2(CCCN(Cc3ccc(OCC(=O)c4ccccc4)cc3)C2)CCC1=O`, the “% Inhibition” value was -5% and the Z score was 0.67.
For `Cc1cc(C)cc(NC(=O)Nc2ccnn2C[C@H]2CCOC2)c1`, the “% Inhibition” value was 14% and the Z score was -1.6.
In the case of `COc1ccc(N2CCN(Cc3nc(C(=O)NCC(C)C)co3)CC2)cc1`, the “% Inhibition” value is reported as -2% and the Z score is reported as 0.47.
With `CCn1cc(C(=O)NS(=O)(=O)Cc2ccc(Cl)c(F)c2)cn1` the “% Inhibition” value was -8% and the Z score was 1.02.
With `Cc1ccc(Br)cc1NC(=O)N(C)C` the “% Inhibition” value was -7% and the Z score was 1.22.
With `COc1ccc(NC(=O)[C@H]2CC(=O)N(c3[nH]nc4cc(Br)ccc34)C2)cn1` the “% Inhibition” value was -17% and the Z score was 1.79.
With `C#Cc1cccc(N(Cc2ccco2)S(=O)(=O)C[C@H]2CCCO2)c1` the “% Inhibition” value was 2% and the Z score was -0.24.
With `OC1(CCNc2ncnc3c2Cc2ccccc2OC3)CCCC1` the “% Inhibition” value was 6% and the Z score was -0.61.
In the case of `Cc1cc(S(=O)(=O)N2CCN(Cc3ccncc3)CC2)c(C)s1`, the “% Inhibition” value is reported as 11% and the Z score is reported as -1.44.
For `CC(C)c1nn(C)cc1CN1CCCC2(C1)OCCO2`, the “% Inhibition” value was -8% and the Z score was 1.55.
`N#Cc1nc(-c2cccs2)oc1N1CCC[C@H](O)C1` was tested, and the “% Inhibition” value was -15% and the Z score was 2.08.
With `COc1cc2ccc1Oc1cccc(c1)CO[C@H]1CN(C(=O)c3ccncc3)C[C@@H]1NC(=O)CN(C1CC1)C(=O)CC2` the “% Inhibition” value was -13% and the Z score was 1.65.
With `CCCn1nc(-c2ccc(F)c(F)c2)nc1CCN` the “% Inhibition” value was -3% and the Z score was 0.42.
For `CCC[C@@H](C(=O)N1CCN(CC)CC1)n1c(Cc2c(Cl)cccc2Cl)nc2ccccc21`, the “% Inhibition” value was -5% and the Z score was 0.75.
`C[C@H]1CNC(=O)CCN1C(=O)c1ccccc1-c1nccn1C` was tested, and the “% Inhibition” value was -8% and the Z score was 1.16.
With `Cc1cc(NCCCc2ncnn2C)nc(C)n1` the “% Inhibition” value was -10% and the Z score was 1.66.
For `CNC(=O)C(C)(C)CN[C@H]1CCCc2ccc(OC)c(Cl)c21`, the “% Inhibition” value was -4% and the Z score was 0.49.
In the case of `CC(C)(C)C1CCC(OC[C@@H](O)CN2CCCC2)CC1` (stereo partly specified), the “% Inhibition” value is reported as -8% and the Z score is reported as 1.12.
With `Cc1cn2nc(C(=O)Nc3ccc4c(c3)OCCO4)cc2c(N(C)Cc2ccccc2)n1` the “% Inhibition” value was 16% and the Z score was -3.07.
For `CC(C(=O)N1CCOCC1C1CCCCC1O)c1cncnc1` (stereo unspecified), the “% Inhibition” value was 2% and the Z score was -0.41.
In the case of `Cc1n[nH]c(C)c1CC(=O)Nc1c(C)n(C)n(C2CCCCC2)c1=O`, the “% Inhibition” value is reported as -16% and the Z score is reported as 2.13.
In the case of `Cn1ncc2c(=O)n(CC3CC3)cnc21`, the “% Inhibition” value is reported as -7% and the Z score is reported as 0.97.
In the case of `Cc1cc(C)nc(CN(C)c2nc(N)nc(C)c2CCC(=O)O)c1`, the “% Inhibition” value is reported as -11% and the Z score is reported as 1.77.
With `O=C(c1ccc2nsnc2c1)N1C2CCC1CC(n1cccn1)C2` (stereo unspecified) the “% Inhibition” value was -11% and the Z score was 1.46.
`CCCc1[nH]ccc1C(=O)N1CCN(C(=O)c2ccccc2)CC1` was tested, and the “% Inhibition” value was -11% and the Z score was 1.44.
For `Cc1ccc2ncc(CNc3nnc(C(C)C)o3)n2c1`, the “% Inhibition” value was -11% and the Z score was 1.6.
With `CCn1c(=O)c(N2CCC(NC(=O)Nc3ccccc3C)CC2)nc2ccccc21` the “% Inhibition” value was -19% and the Z score was 2.33.
With `Cc1cc(N)n(CC(=O)N2CC[C@@]3(CCCN(CC4CC4)C3=O)C2)n1` the “% Inhibition” value was -7% and the Z score was 1.56.
For `Cc1ccc(S(=O)(=O)NCc2ccc(N3CCC[C@H](C)C3)cc2)cc1`, the “% Inhibition” value was -12% and the Z score was 1.04.
For `CCCC(CCC)C(=O)N1C[C@H]2CC(=O)NCCN(C)C(=O)c3cccc(OC)c3OCc3cn(nn3)[C@H]2C1`, the “% Inhibition” value was -3% and the Z score was 0.41.
For `c1ccc(Cn2nncc2CN2CCC(OC3CCC3)CC2)cc1`, the “% Inhibition” value was 9% and the Z score was -1.21.
In the case of `Nc1nc(N2CCN(CCOc3ccccc3)CC2)cc([C@H]2C[C@@H](O)C2)n1`, the “% Inhibition” value is reported as -10% and the Z score is reported as 1.2.
With `Cn1cccc1C(=O)N1CCN(c2cc(C(F)(F)F)ncn2)CC1` the “% Inhibition” value was -14% and the Z score was 1.83.
For `Cc1csc(CN(C)c2ccc(C(=O)Nc3nncs3)cn2)n1`, the “% Inhibition” value was 10% and the Z score was -1.2.
With `COc1ccc(OC)c([C@@H]2c3ccc(O)cc3Oc3nc(N)c(C#N)c(N)c32)c1` the “% Inhibition” value was 10% and the Z score was -1.24.
`COC(=O)[C@H](C)Oc1ccc(Oc2nc(N(C)C)nc(N3CCCC3)n2)nn1` was tested, and the “% Inhibition” value was 8% and the Z score was -0.89.
For `CC[C@@H](c1cccc(OC)c1)N(C)Cc1cnc2nc(C)cc(C)n12`, the “% Inhibition” value was -11% and the Z score was 1.79.
With `O=C(c1ccco1)N1CCN(c2nc(Nc3ccc(F)cc3)c3nn[nH]c3n2)CC1` the “% Inhibition” value was -13% and the Z score was 2.02.
For `COc1cc(Cl)c(C)cc1NC(=O)CN(C)Cc1cnn(C)c1`, the “% Inhibition” value was 3% and the Z score was -0.54.
In the case of `C[C@H](NC(=O)c1cccc2ccccc12)C1CC1`, the “% Inhibition” value is reported as -16% and the Z score is reported as 2.25.
For `Cc1nc2c(c(=O)n1C)CN(Cc1[nH]c3ccccc3c1Cl)C2`, the “% Inhibition” value was -9% and the Z score was 1.75.
For `O=C(OC1CCS(=O)(=O)C1)c1cccc(NC(=O)C2Cc3ccccc3O2)c1` (stereo unspecified), the “% Inhibition” value was -8% and the Z score was 1.32.
With `CC(C)[C@H](NCc1nnc(C2CC2)n1C)C1(CO)CCCC1` the “% Inhibition” value was 1% and the Z score was -0.19.
With `CCc1ccccc1NC(=O)[C@@H]1CCN(S(C)(=O)=O)c2ccccc2O1` the “% Inhibition” value was 3% and the Z score was -0.42.
In the case of `CCCCC(=O)N1C[C@H](c2nc(-c3ccccc3)no2)C2(CCOCC2)C1`, the “% Inhibition” value is reported as -2% and the Z score is reported as 0.28.
With `Cn1cnnc1CCNC(=O)[C@](C)(Nc1ccccc1)c1ccccc1` the “% Inhibition” value was -23% and the Z score was 2.1.
